{"source": "paper PMC9911399", "about": "“Two distinct binding modes provide the RNA-binding protein RbFox with extraordinary sequence specificity”", "binders": {"B1": {"name": "ACCACAA (DNA:RNA)", "RNA": "GGGAGACCGGAAUUCAGAUUGUCCACCACAAUUAAAUCCCGUCGUAGCCACCA", "DNA 1": "CAATCTGAATTCCGGTCTCCC", "DNA 2": "TGGTGGCTACGACGGGATT"}, "B2": {"name": "GCGUUCA (DNA:RNA)", "RNA": "B1 RNA with A25G, C27G, A28U, C29U, A30C", "DNA 1": "CAATCTGAATTCCGGTCTCCC", "DNA 2": "TGGTGGCTACGACGGGATT"}, "B3": {"name": "CCACAGC (DNA:RNA)", "RNA": "B1 RNA with A25C, C27A, A28C, C29A, A30G, A31C", "DNA 1": "CAATCTGAATTCCGGTCTCCC", "DNA 2": "TGGTGGCTACGACGGGATT"}, "B4": {"name": "UGAAUUU (DNA:RNA)", "RNA": "B1 RNA with A25U, C26G, C27A, C29U, A30U, A31U", "DNA 1": "CAATCTGAATTCCGGTCTCCC", "DNA 2": "TGGTGGCTACGACGGGATT"}, "B5": {"name": "UUUAGUA (DNA:RNA)", "RNA": "B1 RNA with A25U, C26U, C27U, C29G, A30U", "DNA 1": "CAATCTGAATTCCGGTCTCCC", "DNA 2": "TGGTGGCTACGACGGGATT"}, "B6": {"name": "GAACGAC (DNA:RNA)", "RNA": "B1 RNA with A25G, C26A, C27A, A28C, C29G, A31C", "DNA 1": "CAATCTGAATTCCGGTCTCCC", "DNA 2": "TGGTGGCTACGACGGGATT"}, "B7": {"name": "UGGUACU (DNA:RNA)", "RNA": "GGGAGACCGGAAUUCAGAUUGUCCUGGUACUUUAAAUCCCGUCGUAGCCACCA", "DNA 1": "CAATCTGAATTCCGGTCTCCC", "DNA 2": "TGGTGGCTACGACGGGATT"}, "B8": {"name": "CUCCACG (DNA:RNA)", "RNA": "B7 RNA with U25C, G26U, G27C, U28C, U31G", "DNA 1": "CAATCTGAATTCCGGTCTCCC", "DNA 2": "TGGTGGCTACGACGGGATT"}, "B9": {"name": "AAUACGU (DNA:RNA)", "RNA": "B1 RNA with C26A, C27U, A30G, A31U", "DNA 1": "CAATCTGAATTCCGGTCTCCC", "DNA 2": "TGGTGGCTACGACGGGATT"}, "B10": {"name": "UCUACAU (DNA:RNA)", "RNA": "B1 RNA with A25U, C27U, A31U", "DNA 1": "CAATCTGAATTCCGGTCTCCC", "DNA 2": "TGGTGGCTACGACGGGATT"}, "B11": {"name": "AUCUACA (DNA:RNA)", "RNA": "B1 RNA with C26U, A28U, C29A, A30C", "DNA 1": "CAATCTGAATTCCGGTCTCCC", "DNA 2": "TGGTGGCTACGACGGGATT"}, "B12": {"name": "ACGAGAG (DNA:RNA)", "RNA": "B1 RNA with C27G, C29G, A31G", "DNA 1": "CAATCTGAATTCCGGTCTCCC", "DNA 2": "TGGTGGCTACGACGGGATT"}, "B13": {"name": "GUUGUGG (DNA:RNA)", "RNA": "GGGAGACCGGAAUUCAGAUUGUCCGUUGUGGUUAAAUCCCGUCGUAGCCACCA", "DNA 1": "CAATCTGAATTCCGGTCTCCC", "DNA 2": "TGGTGGCTACGACGGGATT"}, "B14": {"name": "GUGAGGG (DNA:RNA)", "RNA": "B13 RNA with U27G, G28A, U29G", "DNA 1": "CAATCTGAATTCCGGTCTCCC", "DNA 2": "TGGTGGCTACGACGGGATT"}, "B15": {"name": "GCCUAUG (DNA:RNA)", "RNA": "B1 RNA with A25G, A28U, C29A, A30U, A31G", "DNA 1": "CAATCTGAATTCCGGTCTCCC", "DNA 2": "TGGTGGCTACGACGGGATT"}, "B16": {"name": "CACAUCC (DNA:RNA)", "RNA": "B1 RNA with A25C, C26A, C29U, A30C, A31C", "DNA 1": "CAATCTGAATTCCGGTCTCCC", "DNA 2": "TGGTGGCTACGACGGGATT"}, "B17": {"name": "AGAUGCC (DNA:RNA)", "RNA": "B7 RNA with U25A, G27A, A29G, U31C", "DNA 1": "CAATCTGAATTCCGGTCTCCC", "DNA 2": "TGGTGGCTACGACGGGATT"}, "B18": {"name": "GCUCAGG (DNA:RNA)", "RNA": "B13 RNA with U26C, G28C, U29A", "DNA 1": "CAATCTGAATTCCGGTCTCCC", "DNA 2": "TGGTGGCTACGACGGGATT"}, "B19": {"name": "AAUAAGG (DNA:RNA)", "RNA": "B13 RNA with G25A, U26A, G28A, U29A", "DNA 1": "CAATCTGAATTCCGGTCTCCC", "DNA 2": "TGGTGGCTACGACGGGATT"}, "B20": {"name": "CGCUACC (DNA:RNA)", "RNA": "B7 RNA with U25C, G27C, U31C", "DNA 1": "CAATCTGAATTCCGGTCTCCC", "DNA 2": "TGGTGGCTACGACGGGATT"}}, "note": "Where a chain is given by its changes, count along the chain named. This is one part of the list.", "data": [{"target": "T1, RBFOX1 RRM (Homo sapiens, UniProt Q9NWB1 109-208)", "T1 sequence": "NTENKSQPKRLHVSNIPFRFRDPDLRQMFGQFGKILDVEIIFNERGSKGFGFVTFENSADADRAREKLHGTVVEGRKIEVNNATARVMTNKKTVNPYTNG", "test": "EMSA; HiTS-Eq, 1 nM pool, 10 min; buffer printed only for the single-RNA assays: 10 mM Tris pH 7.5, 150 mM NaCl, 3.4 mM EDTA, 0.001% NP-40, 30 C", "conditions": "tags: His6 N-terminal (pET28a); label: 5' 32P", "procedure,_shortened": "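A pool of RNA with 7 randomized nucleotides, 5′-radiolabelled and with DNA-annealed flanks, was equilibrated at 1 nM for 10 min in 50 µL with purified RbFox RRM, wild type or mutant, across increasing protein concentrations. Free RNA was separated by 8% native PAGE, excised, reverse-transcribed, barcoded by PCR and sequenced. Relative association constants were obtained from read-count changes of each RNA species versus the control reaction and normalised to the cognate motif.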", "values": [{"binder": "B1", "binding signal": "0.00102 KA relative to UGCAUGU"}, {"binder": "B2", "binding signal": "0.0108 KA relative to UGCAUGU"}, {"binder": "B3", "binding signal": "0.00305 KA relative to UGCAUGU"}, {"binder": "B4", "binding signal": "0.0151 KA relative to UGCAUGU"}, {"binder": "B5", "binding signal": "0.0098 KA relative to UGCAUGU"}, {"binder": "B6", "binding signal": "0.0117 KA relative to UGCAUGU"}, {"binder": "B7", "binding signal": "0.0127 KA relative to UGCAUGU"}, {"binder": "B8", "binding signal": "0.00887 KA relative to UGCAUGU"}, {"binder": "B9", "binding signal": "0.00333 KA relative to UGCAUGU"}, {"binder": "B10", "binding signal": "0.00269 KA relative to UGCAUGU"}, {"binder": "B11", "binding signal": "0.000595 KA relative to UGCAUGU"}, {"binder": "B12", "binding signal": "0.0117 KA relative to UGCAUGU"}, {"binder": "B13", "binding signal": "0.0184 KA relative to UGCAUGU"}, {"binder": "B14", "binding signal": "0.00678 KA relative to UGCAUGU"}, {"binder": "B15", "binding signal": "0.0127 KA relative to UGCAUGU"}, {"binder": "B16", "binding signal": "0.000251 KA relative to UGCAUGU"}, {"binder": "B17", "binding signal": "0.00804 KA relative to UGCAUGU"}, {"binder": "B18", "binding signal": "0.0146 KA relative to UGCAUGU"}, {"binder": "B19", "binding signal": "0.00459 KA relative to UGCAUGU"}, {"binder": "B20", "binding signal": "0.00834 KA relative to UGCAUGU"}]}]}
